# Assay results: the supplement of paper PMC8728848
# The other results are listed elsewhere or left out.
# B1: SSP1 (Sclerotinia sclerotiorum), XP_001584968 (protein)
# chain: MGSSHHHHHHSSGLVPRGSHMSLLTTELACTSAPDQVLHLFFQDGQNILEARSPDGGNVWTTQDTIIAKDGDYNGSSMTCYYVDKDANFDNQPSIHLLYMNKDKQLTEKVKRMKGDNPIWEDAKVPDEVRKGPEQYSKLTSGSFNQGTGWNPNGSQWAYFSASKDGKMGIVEIRRTPKDPWHTETILEEKWGDELPGTALACVIGNGKIRVFLQHHDYSIILYENQNNTWHDRGTFIPKDKVQATTPLACTMTKDGSVHLFYVSKSNKIIHCTDGKKEEELINFFPGSKLGATSVENKITLFFRNLNPVNEVGTLENENGSWKHGTTVIPA
# Legend:
# Experiment in all cases: glycan array binding signal (z-score within array); higher = stronger binding
# Conditions in all cases: glycan notation: IUPAC condensed, linker removed
# [1] = biological target: GlcNAc(b1-3)Gal(b1-4)GlcNAc(b1-3)Gal(b1-4)GlcNAc(b1-2)Man(a1-3)[GlcNAc(b1-3)Gal(b1-4)GlcNAc(b1-3)Gal(b1-4)GlcNAc(b1-2)Man(a1-6)]Man(b1-4)GlcNAc(b1-4)GlcNAc
# Summary of the method: (§1)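 Glycan array data were curated from 3228 arrays in the Consortium for Functional Glycomics database and kept only where the protein sequence was available. Glycan names were converted to IUPAC-condensed notation, and columns mapping to the same glycan were averaged. The binding signal is a within-array Z-score, averaged across arrays of the same protein sequence at different concentrations or buffers and across linkers. Negative Z-scores can be read as non-binding.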
# [2] = biological target: GlcNAc(b1-3)Gal(b1-4)GlcNAc(b1-3)Gal(b1-4)GlcNAc(b1-2)Man(a1-3)[GlcNAc(b1-3)Gal(b1-4)GlcNAc(b1-3)Gal(b1-4)GlcNAc(b1-2)Man(a1-6)]Man(b1-4)GlcNAc(b1-4)[Fuc(a1-6)]GlcNAc
# Summary of the method: as §1
# [3] = biological target: GlcNAc(b1-3)Gal(b1-4)GlcNAc(b1-3)Gal(b1-4)GlcNAc(b1-2)[GlcNAc(b1-3)Gal(b1-4)GlcNAc(b1-3)Gal(b1-4)GlcNAc(b1-6)]Man(a1-6)[GlcNAc(b1-3)Gal(b1-4)GlcNAc(b1-3)Gal(b1-4)GlcNAc(b1-2)Man(a1-3)]Man(b1-4)GlcNAc(b1-4)[Fuc(a1-6)]GlcNAc
# Summary of the method: as §1
# [4] = biological target: GlcNAc(b1-3)Gal(b1-4)GlcNAc(b1-3)Gal(b1-4)GlcNAc(b1-3)Gal(b1-4)GlcNAc(b1-2)Man(a1-3)[GlcNAc(b1-3)Gal(b1-4)GlcNAc(b1-3)Gal(b1-4)GlcNAc(b1-3)Gal(b1-4)GlcNAc(b1-2)Man(a1-6)]Man(b1-4)GlcNAc(b1-4)GlcNAc
# Summary of the method: as §1
# [5] = biological target: GlcNAc(b1-3)Gal(b1-4)GlcNAc(b1-3)Gal(b1-4)GlcNAc(b1-3)Gal(b1-4)GlcNAc(b1-2)Man(a1-3)[GlcNAc(b1-3)Gal(b1-4)GlcNAc(b1-3)Gal(b1-4)GlcNAc(b1-3)Gal(b1-4)GlcNAc(b1-2)Man(a1-6)]Man(b1-4)GlcNAc(b1-4)[Fuc(a1-6)]GlcNAc
# Summary of the method: as §1
# [6] = biological target: GlcNAc(b1-3)Gal(b1-4)GlcNAc(b1-3)Gal(b1-4)GlcNAc(b1-3)Gal(b1-4)GlcNAc(b1-2)[GlcNAc(b1-3)Gal(b1-4)GlcNAc(b1-3)Gal(b1-4)GlcNAc(b1-3)Gal(b1-4)GlcNAc(b1-6)]Man(a1-6)[GlcNAc(b1-3)Gal(b1-4)GlcNAc(b1-3)Gal(b1-4)GlcNAc(b1-3)Gal(b1-4)GlcNAc(b1-2)Man(a1-3)]Man(b1-4)GlcNAc(b1-4)[Fuc(a1-6)]GlcNAc
# Summary of the method: as §1
# [7] = biological target: GlcNAc(b1-3)Gal(b1-4)GlcNAc(b1-3)Gal(b1-4)GlcNAc(b1-3)Gal(b1-4)GlcNAc(b1-3)Gal(b1-4)GlcNAc(b1-2)Man(a1-3)[GlcNAc(b1-3)Gal(b1-4)GlcNAc(b1-3)Gal(b1-4)GlcNAc(b1-3)Gal(b1-4)GlcNAc(b1-3)Gal(b1-4)GlcNAc(b1-2)Man(a1-6)]Man(b1-4)GlcNAc(b1-4)GlcNAc
# Summary of the method: as §1
# [8] = biological target: GlcNAc(b1-3)Gal(b1-4)GlcNAc(b1-3)Gal(b1-4)GlcNAc(b1-3)Gal(b1-4)GlcNAc(b1-3)Gal(b1-4)GlcNAc(b1-2)Man(a1-3)[GlcNAc(b1-3)Gal(b1-4)GlcNAc(b1-3)Gal(b1-4)GlcNAc(b1-3)Gal(b1-4)GlcNAc(b1-3)Gal(b1-4)GlcNAc(b1-2)Man(a1-6)]Man(b1-4)GlcNAc(b1-4)[Fuc(a1-6)]GlcNAc
# Summary of the method: as §1
# [9] = biological target: GlcNAc(b1-3)Gal(b1-4)GlcNAc(b1-3)Gal(b1-4)GlcNAc(b1-3)Gal(b1-4)GlcNAc(b1-3)Gal(b1-4)GlcNAc(b1-2)[GlcNAc(b1-3)Gal(b1-4)GlcNAc(b1-3)Gal(b1-4)GlcNAc(b1-3)Gal(b1-4)GlcNAc(b1-3)Gal(b1-4)GlcNAc(b1-6)]Man(a1-6)[GlcNAc(b1-3)Gal(b1-4)GlcNAc(b1-3)Gal(b1-4)GlcNAc(b1-3)Gal(b1-4)GlcNAc(b1-3)Gal(b1-4)GlcNAc(b1-2)Man(a1-3)]Man(b1-4)GlcNAc(b1-4)[Fuc(a1-6)]GlcNAc
# Summary of the method: as §1
# [10] = biological target: GlcNAc(b1-3)Gal(b1-4)GlcNAc(b1-3)Gal(b1-4)GlcNAc(b1-3)GalNAc
# Summary of the method: as §1
# [11] = biological target: GlcNAc(b1-3)Gal(b1-4)GlcNAc(b1-3)GalNAc
# Summary of the method: as §1
# [12] = biological target: GlcNAc(b1-3)Gal(b1-4)GlcNAc(b1-3)[GlcNAc(b1-3)Gal(b1-4)GlcNAc(b1-3)]GalNAc
# Summary of the method: as §1
# [13] = biological target: GlcNAc(b1-3)Gal(b1-4)GlcNAc(b1-6)[Gal(b1-3)]GalNAc
# Summary of the method: as §1
# [14] = biological target: GlcNAc(b1-3)Gal(b1-4)GlcNAc(b1-6)[GlcNAc(b1-3)Gal(b1-3)]GalNAc
# Summary of the method: as §1
# [15] = biological target: GlcNAc(b1-3)Gal(b1-4)GlcNAc(b1-6)[GlcNAc(b1-3)]Gal(b1-4)GlcNAc
# Summary of the method: as §1
# GlcNAc(b1-3)GalNAc = biological target: GlcNAc(b1-3)GalNAc
# Summary of the method: as §1
# GlcNAc(b1-3)Man = biological target: GlcNAc(b1-3)Man
# Summary of the method: as §1
# [16] = biological target: GlcNAc(b1-3)[GlcNAc(b1-4)][GlcNAc(b1-6)]GlcNAc
# Summary of the method: as §1
# [17] = biological target: GlcNAc(b1-3)[GlcNAc(b1-6)]Gal(b1-4)GlcNAc
# Summary of the method: as §1
# [18] = biological target: GlcNAc(b1-3)[GlcNAc(b1-6)]GalNAc
# Summary of the method: as §1
# [19] = biological target: GlcNAc(b1-4)Gal(b1-4)GlcNAc
# Summary of the method: as §1
# GlcNAc(b1-4)GlcNAc = biological target: GlcNAc(b1-4)GlcNAc
# Summary of the method: as §1
# [20] = biological target: GlcNAc(b1-4)GlcNAc(b1-4)GlcNAc
# Summary of the method: as §1
binder,measurement,setting,value
B1,glycan array binding signal (z-score),[1],1.22
same,glycan array binding signal (z-score),[2],-0.058
same,glycan array binding signal (z-score),[3],-0.014
same,glycan array binding signal (z-score),[4],-0.019
same,glycan array binding signal (z-score),[5],-0.121
same,glycan array binding signal (z-score),[6],0.078
same,glycan array binding signal (z-score),[7],-0.335
same,glycan array binding signal (z-score),[8],-0.088
same,glycan array binding signal (z-score),[9],0.002
same,glycan array binding signal (z-score),[10],0.044
same,glycan array binding signal (z-score),[11],-0.137
same,glycan array binding signal (z-score),[12],-0.162
same,glycan array binding signal (z-score),[13],-0.156
same,glycan array binding signal (z-score),[14],-0.034
same,glycan array binding signal (z-score),[15],-0.365
same,glycan array binding signal (z-score),GlcNAc(b1-3)GalNAc,-0.446
same,glycan array binding signal (z-score),GlcNAc(b1-3)Man,-0.252
same,glycan array binding signal (z-score),[16],0.269
same,glycan array binding signal (z-score),[17],0.078
same,glycan array binding signal (z-score),[18],-0.48
same,glycan array binding signal (z-score),[19],-0.694
same,glycan array binding signal (z-score),GlcNAc(b1-4)GlcNAc,0.012
same,glycan array binding signal (z-score),[20],-0.441
